PubChem BioAssay AID485281 (National Center for Advancing Translational Sciences (NCATS), 2010)
Among all 350,000 compounds or so, about 260 (0.074%) were called active. The shares of active, inactive and inconclusive entries below differ from those in the screen. The call rests on the fitted dose curve; in most records, active means well fitted inhibition curve with a large enough effect; inconclusive means small, poorly fitted or top-dose-only effect; inactive means no such curve, though single readings can be large or run the other way. Potencies of inconclusive entries are doubtful fits and often do not repeat.

Each compound was assayed against Ferritin light chain (Equus caballus) (UniProt P02791) (assay: qHTS Assay for Identification of Novel General Anesthetics). Settings: apoferritin/1-aminoanthracene competitive binding, fluorescence; series mostly up to 77.5 µM.
Outline: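 Probe: 1-aminoanthracene (50% saturated, PBS). Protein: horse-spleen apoferritin, 10 uM. Incubation: 10 min, room temperature. Detection: 380 nm excitation, 535 nm emission. Analysis: normalized response, four-parameter Hill.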
Further: nearly all actives have a fitted effect of over 20% in size.
Potency means the concentration at half of the fitted maximal effect; tags describe the fitted curve by direction and shape.

Sequence of UniProt P02791 (P02791 whole entry, looked up): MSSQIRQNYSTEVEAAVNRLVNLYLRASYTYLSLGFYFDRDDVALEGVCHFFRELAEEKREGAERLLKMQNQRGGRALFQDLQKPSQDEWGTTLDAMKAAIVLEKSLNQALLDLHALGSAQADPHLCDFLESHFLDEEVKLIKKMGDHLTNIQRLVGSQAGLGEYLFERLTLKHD

Potency, inconclusive:
Cc1ccc(Nc2ccc([N+](=O)[O-])cn2)cc1Cl 7.08 µM [inhibitor, full curve]
CC(=O)c1ccc(NC(=O)C2CCC(CNS(=O)(=O)c3cccc4nsnc34)CC2)cc1 (configuration not stated) 25.1 µM [inhibitor, partial curve]
c1ccc(Cc2ccc(OCCn3ccnc3)cc2)cc1 15.8 µM [inhibitor, partial curve]
O=C(c1ccco1)N(CCC(c1ccccc1)c1ccco1)Cc1ccco1 (configuration not stated) 35.5 µM [inhibitor, partial curve]
C=CCN=C1NN=C(c2ccc3c(c2)OCCO3)CS1 31.6 µM [inhibitor, partial curve]
CCCCCc1ccc(CC(=O)Nn2c(C)nc3ccccc3c2=O)cc1 11.2 µM [inhibitor, full curve]
Cc1nn(Cc2ccccc2)c(Cl)c1C(=O)OC1CCOC1=O (configuration not stated) 56.2 µM [inhibitor, single point]
COc1ccccc1C(=O)NC(=S)N1CCc2ccccc21 35.5 µM [inhibitor, partial curve]
CCc1cccc(NC(=O)c2cnc(SC)nc2-c2ccccc2)c1 11.2 µM [inhibitor, partial curve]
O=C(COc1ccc2ccccc2c1)N/N=C/C1CC=CCC1 (configuration not stated) 50.1 µM [inhibitor, single point]
O/N=C\c1cccn1-c1ccc(Br)cc1 35.5 µM [inhibitor, partial curve]
Cc1cccc(NC(=O)Cc2ccc(-c3ccccc3)cc2)n1 5.62 µM [inhibitor, partial curve]
C=CCc1ccc(OC(=O)c2ccccc2)c(OC)c1 25.1 µM [inhibitor, partial curve]
CCN(Cc1ccccc1)C(=O)CCCOc1ccccc1 22.4 µM [inhibitor, partial curve]
Cc1cc(NC(=O)COC(=O)COc2ccc3c4c(c(=O)oc3c2)CCC4)no1 3.98 µM [inhibitor, full curve]
Cc1ccc(-n2nc(C)c(/C=N/n3c(C)n[nH]c3=S)c2Cl)cc1 35.5 µM [inhibitor, single point]
CC(C)(C)c1csc(NC(=O)CSc2nc3ccccc3c(=O)[nH]2)n1 28.2 µM [inhibitor, partial curve]
Cc1ccccc1NC(=O)COC(=O)C1(C)CC1(Cl)Cl (configuration not stated) 28.2 µM [inhibitor, partial curve, poor fit]
COc1ccc2c(c1)CCc1c(C(=O)N(C)c3ccccc3)noc1-2 35.5 µM [inhibitor, single point]
COC(=O)c1c(C)[nH]c(C(=O)COC(=O)Cc2ccc3c(c2)OCCO3)c1C 25.1 µM [inhibitor, partial curve]
O=C(NCCc1ccc(Cl)cc1)C1CCN(S(=O)(=O)c2cccs2)CC1 50.1 µM [inhibitor, single point]
CCOc1ccc(Cc2nnc(SCC(=O)c3ccc(OC)cc3)o2)cc1 25.1 µM [inhibitor, partial curve]
C=C1CCN([C@H](C(=O)Nc2ccc(OC)cc2)C(C)C)S(=O)(=O)c2ccccc21 39.8 µM [inhibitor, partial curve]
CCSc1nc2sc3c(c2c(=O)n1C1CCCCC1)CCN(C)C3 20 µM [inhibitor, partial curve]
COc1ccc(/C=N/NC(=O)Cn2cc(C(F)(F)F)ccc2=O)cc1 15.8 µM [inhibitor, partial curve]
CCOC(=O)c1c(-c2ccc(C)o2)csc1N 22.4 µM [inhibitor, partial curve]
CC(C)c1ccc2c(c1)C1(NN=C(c3ccccc3)S1)C(=O)N2 (configuration not stated) 31.6 µM [inhibitor, single point]
CCn1c(SCC(=O)c2ccc(Cl)cc2)nnc1C(C)C 39.8 µM [inhibitor, partial curve]
CCOCCCN1CN(S(=O)(=O)c2ccc(Cl)cc2)c2nc3ccccc3nc21 31.6 µM [inhibitor, partial curve]
Nc1nonc1C(=O)N/N=C/c1cc2c(cc1Br)OCO2 15.8 µM [inhibitor, partial curve]
Cc1cc(=O)[nH]c(SCC(=O)c2ccc(C)c(C)c2)n1 28.2 µM [inhibitor, partial curve]
Cc1ncoc1C(=O)N1CCc2c([nH]c3ccccc23)C1c1ccccc1F (configuration not stated) 28.2 µM [inhibitor, partial curve]
Cc1ccsc1C(=O)NNC(=O)C1CCCCC1C(=O)O (configuration not stated) 25.1 µM [inhibitor, partial curve]
O=C(CC(=O)N/N=C/c1c(F)cccc1Cl)NCc1ccccc1 20 µM [inhibitor, partial curve]
CCOC(=O)CSc1ncc(-c2ccccc2)nn1 25.1 µM [inhibitor, partial curve]
Cc1ccc2sc(N(CCCN(C)C)C(=O)CN3C(=O)c4ccccc4C3=O)nc2c1C 22.4 µM [inhibitor, partial curve]
O=C(N/N=C\c1ccc(Cl)s1)c1cccs1 50.1 µM [inhibitor, single point]
Cc1ccc(NCC(=O)N/N=C/c2ccc(OC(=O)c3ccco3)cc2)cc1 14.1 µM [inhibitor, partial curve]
CCCOc1ccc(C2c3c(oc4cc(C)c(C)cc4c3=O)C(=O)N2CCCN(C)C)cc1 (configuration not stated) 50.1 µM [inhibitor, single point]
N#CC1=C2SCN(c3ccccc3)CN2C(=O)CC1c1cccs1 (configuration not stated) 31.6 µM [inhibitor, partial curve]
CCCS(=O)(=O)c1c(S(=O)(=O)CCC)c2c(N)cccn2c1C(=O)c1ccccc1 17.8 µM [inhibitor, partial curve]
COc1ccc(-c2nnc(SCC(=O)Nc3ccc(C(C)=O)cc3)nc2-c2ccc(OC)cc2)cc1 10 µM [inhibitor, full curve]
Cc1ccc(C2CC(c3ccc(Cl)cc3)=NNC2=O)cc1 (configuration not stated) 28.2 µM [inhibitor, partial curve]
C=CCn1c(NCc2c[nH]c3ccccc23)nc2ccccc21 44.7 µM [inhibitor, single point]
Cc1cc(C)n(-c2ccc(C)c(Cl)c2)n1 44.7 µM [inhibitor, partial curve]
Cc1cc(C)c(C)c(S(=O)(=O)NC2CCCCC2)c1C 22.4 µM [inhibitor, partial curve]
CCOc1cccc(CNc2ccc(O)cc2)c1OCc1ccccc1Cl 14.1 µM [inhibitor, partial curve]
CN1CCN(c2ccc([N+](=O)[O-])cc2/C=N/NC(=O)c2ccc(F)cc2)CC1 50.1 µM [inhibitor, single point]

Potency, inactive:
CC1=C(C#N)C(=O)OC(C)(C)C1
Cc1cccc(N2CCN(C(=O)c3ccc4nc[nH]c4c3)CC2)c1C
COc1cc(/C=C2/C(=O)NN(c3ccc(C)c(Cl)c3)C2=O)cc([N+](=O)[O-])c1O
COC(=O)c1ccccc1NC(=O)NC1CC1
Fc1ccc(CSc2nnc(-c3ccccn3)o2)cc1
CCOC(=O)c1cc(C)n(CC2CCC(C(=O)Nc3ccc(OCC)cc3)CC2)c1C (configuration not stated)
Cc1ccc2oc(-c3cc(NC(=O)c4ccc5c(c4)OCCO5)cc(C)c3O)nc2c1
COc1ccc(CNC(=S)Nc2cccc(F)c2)cc1
Cc1ccc(N(C(=O)CCC(=O)Nc2cc(C)on2)C(C(=O)NC2CCCC2)c2ccccc2)cc1 (configuration not stated)
CC(C)(C)OC(=O)NCCCCCc1nnc(SCc2ccccc2)o1
Cc1cc(NC(=O)CSc2nc3c([nH]c4ccccc43)c(=O)n2-c2ccccc2)no1
Cc1ccc(C2CC(=O)N(Cc3ccccc3)c3c2c(C)nn3-c2nc(C)cc(C)n2)cc1 (configuration not stated)
CC(=O)c1c(NC(=O)c2ccccc2)[nH]c(-c2ccccc2)nc1=S
Cc1n[nH]c(C)c1S(=O)(=O)N(CC(=O)NCc1ccccc1Cl)c1ccc(C(C)C)cc1
CC(C)(C)c1ccc(C(=O)Nc2cccnc2)cc1
Cc1ccc(S(=O)(=O)c2cc3c(=O)n4ccccc4nc3n(C)c2=N)cc1C
CCOc1ccc(CN(C)C(=O)[C@H](Cc2ccccc2)NC(=O)OCc2ccccc2)cc1OC
CCCN1C2CCCC1CC(NC(=S)Nc1cccc(C)c1C)C2 (configuration not stated)
COc1ccc(CN2C(=O)c3cccnc3C2Nc2ccc(OC)c(Cl)c2)cc1 (configuration not stated)
CC(C)(C)N/N=C/c1cc(Cl)cc([N+](=O)[O-])c1O
CC(C)c1ccc(CNc2ncccn2)cc1
Cc1cn(C2CC3OCC(NC(=O)C(NC(=O)OC(C)(C)C)C(C)OCc4ccccc4)C3O2)c(=O)[nH]c1=O (configuration not stated)
CCOc1ccc(CCNC(=O)c2c(C)oc3ncnc(N4CCOCC4)c23)cc1
Cc1cc(C)cc(NC(=O)CN(C)S(=O)(=O)c2ccc3[nH]c4c(c3c2)CCCC4)c1
